The other results are listed elsewhere or left out. These are enrichments in a pooled selection; single values are uncertain.
What follows are substances tested on SARS-CoV-2 3CLpro (nsp5) (assay: substrate phage enrichment score (protease-eluted vs HEPES control, +1 offset) (ratio); higher = better cleaved substrate). Settings: selection round: 4; protease elution time: 15 min.
Method: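 Random heptapeptide substrate phage display (M13 pIII fusion, heptapeptide between an N-terminal biotinylated AviTag GLNDIFEAQKIEWHE and pIII; phages immobilised on streptavidin) eluted by cleavage with 50 nM protease in 20 mM HEPES at 37 °C. Selected phages were NGS sequenced, and the enrichment score is (reads in protease sample + 1)/(reads in HEPES blank-selection control + 1).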

Substance	substrate phage enrichment score
TKNKEAG	0.952
GFNTDLR	> 23
NSHDASR	3.71
HSAAHHH	1.56
VYMESRQ	> 28
KPSRDLP	2.57
TPKKGLK	0.345
TATGTVG	0.541
RSCIIVT	0.673
QEAAHHH	0.239
RQSSRLS	1.85
HFRPCKR	> 24
SPFPLSV	> 23
RINDAPG	4.5
QNQKAME	> 22
RATAHHH	0.545
NWQRTMP	> 57
KTEYFQG	> 26
TEIPETR	> 34
PLRCYLY	> 47
VCSDARS	0.917
ARLEIGP	> 21
SASAHHH	0.8

Substance	substrate phage enrichment score
HIKLKPQ	1.73
GRCNWSN	> 37
GCTAAHH	7
RGDCARG	> 39
ERVTLQC	> 109
EQKPTPC	> 49
DRNAAAH	> 29
SEPPCPL	4.4
SSVTHAP	> 27
CLMDPTT	> 27
CSLEGRT	> 21
PSHATHG	> 41
WCLPSLQ	17.5
YSSQGGS	2.92
LQIQKDG	3.14
SSPAAHH	1.62
SAGSSWT	2.9
MSKSETW	0.625
STSHGAT	> 67
HQSKSPD	> 50
TLQKIRQ	1
RATAAPH	2.55
CNHELTG	4.5

Substance	substrate phage enrichment score
NQHHTPQ	0.5
PGNHHHH	3.43
YGCESKK	> 34
AMNQPNP	> 23
KFLTPWQ	0.227
WVGADKN	0.448
RQSLHSV	10
TGSCTLQ	> 98
ANRPHFQ	> 28
SPLQPRG	> 30
DITWSKD	5
SRPGSNR	> 45
DPINQTT	2.32
HITDPMT	> 24
LRSGTTI	3.82
CRQSGSA	> 36
TPEYSAR	> 25
VGTWKGA	> 44
KRSWRDQ	> 21
GRKQCPQ	4.5
KHAEFTR	> 85
REVISDG	1.67
CGACDAS	4.55

Substance	substrate phage enrichment score
PLTKNCV	> 32
YVSGSNY	1.12
AAPWVPW	1.17
LSCASAA	> 22
QSKAEYA	3.6
AQYFQGG	3.48
RAAAHHH	0.773
GPVRERP	3.87
GVLICRR	> 47
APNECMS	34
AKKKPLQ	> 32
CRDSGQQ	0.917
NGALPTF	2.71
LTEDPTR	0.0741
YVHESSL	2.13
AHAQSEA	> 95
KNWACTD	2.43
QGWRKPR	> 73
TLRGTEG	> 39
TRINSHG	10.7
NWISPPS	> 33
PQHETNH	0.2
AELPCLQ	> 28

Substance	substrate phage enrichment score
VWPHIII	0.769
SDWKLKD	7
TKCSNFR	5
CSPRLYR	0.718
SAAAQNH	1.51
QYLQARG	> 30
NKTQSRN	3.27
LPDRNSE	> 44
DILTGRC	4.75
CASFQAV	> 21
YGDRDDS	19.5
KESKPPK	> 40
IGMESDH	1.38
AECGQAK	> 28
ATNVILQ	71.5
PISEPPN	0.917
RAAETVP	0.737
PNCALPY	> 123
HAQTKNP	> 33
GLTPNSA	0.588
RVREAPQ	1.93
SVLGGTD	1.33
WDTQGTR	1

Substance	substrate phage enrichment score
STSAHHH	6.6
HRNSDLT	3.54
CLQSKEP	> 21
TPYSKLQ	1980
QLCMPGM	0.208
VVVRPHI	0.667
EEICRMQ	> 48
HVAAHHH	0.517
PDARAPR	> 24
CYPARRY	> 23
TKHGETS	6.25
QYQKHST	> 25
GDTNARQ	0.333
KDLPNLQ	> 339
KSRPHKG	> 34
EAPYKPH	4.41
SSIRPPR	0.217
SNLAGMN	> 23
RPQPAYA	0.08
QYNADRP	5
ALTCDMP	0.25
SPAAHHH	0.888
PRPTTQK	12.7

Substance	substrate phage enrichment score
AKSLHPD	> 26
STLTQDW	> 59
HEKCYLQ	> 114
EPRSTRG	> 107
RVQTLRK	> 41
KSKTPST	> 42
GHCSHGK	> 43
CDASVSA	> 39
CPSAHSQ	> 26
SKPLKGC	5.44
TCIRRDV	2.78
SREKSQG	> 208
SAMNCES	> 28
RCPVASG	> 25
LRPHIII	0.895
CAVECIE	0.0741
PNFQGGS	4.96
LTGTGYS	> 41
VTRSGCH	> 21
SQRVGNS	2.12
AEFKQPV	> 38
EQAKHRI	5.43
QVERCRP	> 27

Substance	substrate phage enrichment score
HIPGTTE	0.944
ARNCVLQ	> 33
LRRTELQ	> 21
QQYGSEC	> 29
LTTSPAS	4.27
AVTHLQS	> 31
QVRGTIR	1.74
HTLLQSQ	> 37
VCGREHP	0.32
EQMPATG	> 24
HRLNSGD	> 22
QKTNKNG	5.25
QYTETAP	2.33
AKEPLYP	0.05
ANRWTSR	8.48
PVNLSTC	1.64
MGDVPDV	28
VAGDLSG	0.65
EGLHDVQ	9
RAIGGVA	> 21
CRALVED	> 41
GLSSGNF	> 41
SGRANLT	3.67

Source: the supplement of paper PMC10185492
